Out of some 350,000 compounds screened, about 9,900 (2.8%) were called active. Inconclusive means that the source gave no clear call. Such entries were picked first, then a sample of the others. Calls follow the shape of the dose curve; as a rule, active = well fitted activation curve with a large enough effect; inconclusive = small, poorly fitted or top-dose-only effect; inactive = no such curve, though single readings can be large or run the other way. Potencies of inconclusive entries are left out as doubtful fits. Some compounds were tested as several samples or in several runs, with calls that do not always agree.
Assay: A quantitative high throughput screen for small molecules that induce DNA re-replication in MCF 10a normal breast cells. Also: nearly all actives have a fitted effect of over 50% in size.
Conditions: MCF 10A DNA re-replication, Hoechst nuclear intensity, 48 h; series mostly up to 46.1 µM
With CCN(CC)C(=O)Cn1cc(S(=O)(=O)CC(=O)Nc2ccccc2C)c2ccccc21 the Potency was “inactive”. For C/C(=N\NC(=O)c1c(C)nc2ccccn12)c1ccco1, the Potency was “inactive”. In the case of Cc1ccc2cc(CN(CC(C)C)S(=O)(=O)c3cccc4nonc34)c(=O)[nH]c2c1, the Potency is reported as “inactive”. With N#Cc1c2n(c3c(=O)n(Cc4ccc(Cl)cc4)cnc13)CCCCC2 the Potency was inconclusive [activator, partial curve, poor fit]. With COc1ccc(NC(=O)c2cccc3c2C(=O)c2ccc(-c4ccc(F)cc4OCc4ccccc4)cc2S3(=O)=O)cc1 the Potency was inconclusive [activator, single point]. With Cn1cc(CCC(=O)N2CCCC(C(=O)c3cccc4ccccc34)C2)cn1 (configuration not stated) the Potency was “inactive”. In the case of Cc1ccc(NC(=O)Cn2c(O)c(N=NC(N)=O)c3ccccc32)cc1, the Potency is reported as inconclusive [activator, single point]. In the case of S=C1NC=NC2N=CNC12 (configuration not stated), the Potency is reported as “inactive”. In the case of CCN1CCCc2cc(CN(CCN3CCOCC3)C(=S)Nc3ccc(C)cc3)ccc21, the Potency is reported as inconclusive [activator, single point]. For O=C(Nc1ccccc1)c1nnsc1S(=O)c1ccc(Cl)cc1 (configuration not stated), the Potency was inconclusive [activator, partial curve]. In the case of CCOC(=O)c1cccc(C2=CC(=O)C[C@H](c3ccc(OC)cc3)C2)c1, the Potency is reported as inconclusive [activator, full curve, poor fit]. With COc1ccc(C(=O)N2CCc3cc(OC)c(OC)cc3C2c2ccc(OC)c(OC)c2)cc1OC (configuration not stated) the Potency was “inactive”. With CC1CC(C)CN(C(=S)SCc2nc(N)nc(Nc3ccccc3)n2)C1 (configuration not stated) the Potency was inconclusive [activator, single point]. For O=C(C1=C[C@@H](c2ccccc2)C[C@@H](OCc2ccc(CO)cc2)O1)N1CCN(Cc2ccc3c(c2)OCO3)CC1, the Potency was inconclusive [activator, single point]. In the case of COc1ccc(-c2nc3c(c(=O)n(C)c(=O)n3C)n2CC2CC(c3ccccc3)=NO2)cc1OC (configuration not stated), the Potency is reported as “inactive”. With COc1cc(C(=O)C(=O)c2ccc(O)c(OC)c2)ccc1O the Potency was inconclusive [activator, single point]. In the case of O=C(COC(=O)c1ccc(Cl)c([N+](=O)[O-])c1)NC1CCCC1, the Potency is reported as “inactive”. With c1ccc(-c2cn3c4c(sc3n2)CCCC4)cc1 the Potency was active: 20.6 µM. With CCCCNc1c(-c2ccc(Sc3ccc(OC)cc3)cc2)nc2cc(C)ccn12 the Potency was active: 23.1 µM. For CCOC(=O)CS(=O)(=O)c1nc(-c2ccccc2)cc(C(F)(F)F)n1, the Potency was inconclusive [activator, full curve, poor fit]. In the case of Cc1ccc(NC(=O)NC2CCN(S(=O)(=O)c3ccc(F)cc3)CC2)cc1, the Potency is reported as “inactive”. With COc1ccc(C2=NOC(Cn3nc(C(=O)NCc4cccc(Br)c4)cc3-c3ccccc3)C2)cc1 (configuration not stated) the Potency was inconclusive [activator, full curve, poor fit]. In the case of O=C(Nc1ccc(C(F)(F)F)cc1)C1CCCCN1S(=O)(=O)c1ccccc1 (configuration not stated), the Potency is reported as inconclusive [activator, partial curve, poor fit]. In the case of Cc1ccc([N+](=O)[O-])cc1NC(=O)Cc1cccs1, the Potency is reported as inconclusive [activator, partial curve, poor fit]. In the case of CCN(CC)c1nc(-c2ccccn2)nc(-c2ccccc2)c1C#N, the Potency is reported as “inactive”. In the case of Cc1cccc(CCNC(=O)CCCOc2cc(=O)n(C)c3ccccc23)c1, the Potency is reported as inconclusive [activator, partial curve, poor fit]. For COc1ccc(C2C(C(=O)O)CCC(=O)N2c2ccc(OC)cc2)cc1 (configuration not stated), the Potency was inconclusive [activator, single point]. In the case of O=C(Nc1cccc(F)c1)c1cc(S(=O)(=O)N2CCC(C(=O)O)CC2)ccc1F, the Potency is reported as “inactive”. In the case of CC(=O)Nc1ccc2nc(NC(=O)c3ccc([N+](=O)[O-])o3)sc2c1, the Potency is reported as active: 0.651 µM. With NC(N)=N/N=C/c1ccc2cccc(OCc3ccccc3)c2n1 the Potency was inconclusive [activator, partial curve, poor fit]. With CC(C)(C)OC(=O)C(C)(C)Sc1nnc(N)s1 the Potency was “inactive”. For O=C(CCCc1ccccc1)Nc1ccnn1C1CCN(Cc2ccccc2)CC1, the Potency was “inactive”. For COC(=O)[C@@]1(Cc2ccc(OC)cc2)[C@@H]2C(=CC(=O)[C@H]2CC(=O)C(=O)N2CCCC2)CN1C(=O)c1ccccc1, the Potency was active: 23.1 µM. For O=C(NC1CCCCC1)c1ccc(S(=O)(=O)NCc2ccco2)cc1, the Potency was “inactive”. In the case of CN1CCCN(S(=O)(=O)c2cccc(C(F)(F)F)c2)c2nc3ccccc3nc21, the Potency is reported as active: 20.6 µM. With CCN(CC)CCCN(Cc1cc2cc3c(cc2[nH]c1=O)OCO3)C(=S)NC the Potency was “inactive”. For CCOc1cc(/C=C2\C(=O)ON=C2C)ccc1OCc1ccccc1, the Potency was inconclusive [activator, full curve, poor fit]. For O=C1N/C(=C\c2ccccc2)C(O)=C1C=NCc1ccccc1, the Potency was inconclusive [activator, partial curve, poor fit]. With COc1cc2c(cc1NC(=O)COC(=O)c1ccc(C(C)(C)C)cc1)oc1ccccc12 the Potency was inconclusive [activator, full curve, poor fit]. For C/C(=N\Nc1nc2ccccc2[nH]1)c1ccc(N2CCOCC2)cc1, the Potency was inconclusive [activator, single point]. For Cc1[nH]c2ccccc2c1C(=O)CSc1nc2ccccc2c(=O)n1CCCN1CCOCC1, the Potency was active: 14.6 µM. With CC(C)c1ccc(NC(=O)CSc2nc(=O)n(CCCN3CCOCC3)c3c2CCC3)cc1 the Potency was inconclusive [activator, single point]. With O=C(CN1CCCC1)OCCCc1ccccc1 the Potency was inconclusive [activator, full curve, poor fit]. With Cc1ccc(S(=O)(=O)CC(=O)N(CCCN(C)C)c2nc3ccc(C)cc3s2)cc1 the Potency was “inactive”. With O=C1NC2(Nc3ccccc31)C(=O)Nc1ccccc12 (configuration not stated) the Potency was inconclusive [activator, single point]. With CN(C)CCCNC(=O)C[C@H]1C[C@H](C(=O)N2CCCCC2)[C@@]2(C)c3[nH]c4ccc(Cl)cc4c3CCN2C1=O the Potency was inconclusive [activator, single point]. In the case of Cc1ccc(C(=O)CNc2ccc(F)cc2)cc1, the Potency is reported as inconclusive [activator, single point]. With CCOc1ccc(S(=O)(=O)NCc2ccncc2)cc1NC(=O)c1ccccc1 the Potency was inconclusive [activator, partial curve, poor fit]. In the case of O=C1NN(c2ccccc2)C(=O)/C1=C/c1coc2ccccc2c1=O, the Potency is reported as inconclusive [activator, single point]. With Cc1ccc(-n2cc(CNCC3CC(=O)N(C4CC4)C3)c(-c3cccc(C)c3)n2)cc1 (configuration not stated) the Potency was “inactive”. In the case of CCOC(=O)C1=CC[C@H]2c3c(c4ccc(OC)cc4n3C)C(=O)C1N2S(=O)(=O)c1ccc(C)cc1, the Potency is reported as inconclusive [activator, single point]. For O=C(CN1CCCCCC1)NC(c1ccccc1)c1ccccc1, the Potency was inconclusive [activator, partial curve, poor fit]. For O=C1Nc2ccccc2C(=O)N2[C@H](c3cccc(Br)c3)[C@@H]3C(=O)N(Cc4ccccc4)C(=O)[C@@H]3[C@H]12, the Potency was inconclusive [activator, single point]. For COc1ccc(Nc2ncc(C(=O)N3CCN(c4ccccc4OC)CC3)c3ccccc23)cc1, the Potency was inconclusive [activator, partial curve, poor fit]. With CS(=O)(=O)N(CC(=O)N1CCCCCC1)c1ccc(Br)cc1 the Potency was “inactive”. With CN(CC(=O)Nc1ccccc1C(F)(F)F)Cc1c(O)ccc2ccccc12 the Potency was “inactive”. For Cc1nn(Cc2c(F)c(F)c(F)c(F)c2F)c(C)c1NC(=O)c1ccc(COc2ccc(Cl)cc2Cl)o1, the Potency was inconclusive [activator, full curve, poor fit]. In the case of O=C(Cn1ncc(Cl)c(Cl)c1=O)Nc1ccc2c(c1)OCO2, the Potency is reported as active: 0.731 µM. With Cc1ccc(S(=O)(=O)N(C)c2c(C)ccc(S(=O)(=O)NC(C)(C)C)c2C)cc1 the Potency was inconclusive [activator, partial curve, poor fit]. With COCCn1c(-c2ccco2)nc2nc3ccccc3nc21 the Potency was inconclusive [activator, single point]. With CCOc1ccc(-c2cc(C(=O)N/N=C/c3ccc(O)cc3)c3ccccc3n2)cc1 the Potency was active: 2.06 µM. For CCC(C)(C)n1nnnc1C(c1cc(OC)ccc1OC)N1CCN(Cc2ccccc2)CC1 (configuration not stated), the Potency was “inactive”. In the case of CN(CC(=O)Nc1cccc(F)c1)C(=O)c1cc(-c2cccs2)nn1-c1ccccc1, the Potency is reported as inconclusive [activator, single point]. For CCOC(=O)Cc1csc(NC(=O)c2sc3nc4c(C)cc(C)cc4cc3c2N)n1, the Potency was inconclusive [activator, partial curve, poor fit]. For Cc1ccc(Cn2cccc2/C=N/NC(=S)Nc2ccc(C)cc2)cc1, the Potency was inconclusive [activator, partial curve, poor fit]. In the case of COC(=O)[C@]1(CC(C)C)N[C@H](c2ccc(-c3ccc(C(C)=O)cc3)cc2)[C@@H]2C(=O)N(C)C(=O)[C@@H]21, the Potency is reported as “inactive”. With COC(=O)c1nccc2c1[nH]c1ccccc12 the Potency was inconclusive [activator, single point].

From PubChem BioAssay AID624296 (National Center for Advancing Translational Sciences (NCATS), 2012)
Potency is read from the fitted curve at half-maximal effect; tags tell the direction and shape of the fitted curve.
